Read counts are not given, so values of variants with three or more changes are uncertain.

This is an account of results in the RNAGym collection of RNA variant scans (doi:10.7554/elife.90254).

B1: LINE1-mini (parent)
chain: GGCAGAGCUCAACACAGCGUGGCAAAGUGGCUGUGGCUAGACUGCC

In this data set the parent is B1. Briefly: self-cleavage, relative activity (ratio to wild type); higher = more cleavage; in vitro, sequencing; the parent is a self-cleaving ribozyme.
Turning to C3A U28C G30U C37A, the self-cleavage amounted to 0.03. As for A12G G29C U38G C45G, the self-cleavage was 0. The same measure for A6U C10A C15A C18A G29U C31U U38A: 0.02. On to C15U C23A G40A A41G C45A, for which the self-cleavage worked out at 0.13. The same measure for C15G A16C G44C: 0.04; for A25G C31U G44U C45A: 0.02; for A4C A11G A39G: 0.01.

As to A24C C31A C42G, the self-cleavage was 0.09. Consider C3U G33U U43A, for which the self-cleavage stood at 0.08. Then U9G A11C G30C C31A U43A G44U, with 0.01. Then A4U C13U G21U, with 0.28; and U9A G17A U38C, with 0.03. Then G35U A39G C46U, with 0.02; and A12C C15A U43C, with 0.01; and G7C G22C G35U, with 0.02. With G7A G22C G30A C31G, the self-cleavage is 0.06.

For the variant C3A C31U G40U, the self-cleavage was 0.08. Then G27U G30U U38A, with 0.77. The same measure for A4C C23A C46U: 0.01; for C23A A26G A39C C42A U43C C45U: 0.04; for G1A G17U G30U C46G: 0.43. U9G C13A U20C C46U: the self-cleavage came to 0.03. Then C3G C18A C31A, with 0.08; and A6G U9C A14U, with 0.03. The same measure for G7C C8A A11U: 0.02. The same measure for A6U A11G C15U: 0.02; for G1C C3A C10A: 0.11; for C3G U9A A14C A25C G40U: 0.04. On to C8A U28G G35A, for which the self-cleavage was 0.33. The same measure for A4U A24G U43A: 0.06; for G1U C10A A14C C37G C46A: 0.01; for G5U A11U C13U G19U C42G: 0.02. C8U U9G C10A A24C: the self-cleavage was 0.03.

Take A6U G21C G33A C37A: the self-cleavage stood at 0.12. On to G2U U9A G30U, for which the self-cleavage amounted to 0.09.

On to G1C C3U A25G, for which the self-cleavage amounted to 0.06. As for C3U G5A C8U G35C A41G, the self-cleavage is 0.03. With A4C G35U U43C, the self-cleavage was determined as 0.12.

With C10U U28A G33U, the self-cleavage is 0.02.

On to G7A G22C G33C U43A C46U, for which the self-cleavage turned out to be 0.11.

As to A12U A14G A25G C37U, the self-cleavage is 0. The same measure for G1C C10A A26C U43C: 0; for G19U A24C G40C: 0.11; for U20G U28C G30U: 2.58. As for G7U C8G C15G U43G, the self-cleavage stood at 0. Then C8A C10U A12U G36A, with 0.02; and G2C A6U G21C C42G, with 0.03. Regarding G2U A6C A26C G40C U43A C46A, the self-cleavage was 0.01. The same measure for G2A U9A C15U U38C A39C: 0.12; for G5U U9C G40A: 0.02. Then A6G G21U G22C C23A, with 0.52. Consider G19C U38G A39G, for which the self-cleavage was determined as 0. As for C8A C31U C37G C46G, the self-cleavage stood at 0.1. The same measure for A24U G30U A39U: 0.9; for C18A U20G G22C U34A G35C: 0.03.

Take G1C C15G U20C G30C C37U C42G: the self-cleavage stood at 0. The same measure for G1A C31U C45A: 0.03. The same measure for G1U A24U U28C: 0.2. Then U28A A41C C42A, with 0.01; and A14C G22C U38G, with 0.01.

In the case of C23A A25C A26U C45U, the self-cleavage worked out at 0.51. Then A14U G22A C31U, with 0.05; and A4C A11U A41G, with 0. Then A25U A26C U28A C37U, with 0.01; and A6C A12G U38C A41C G44C, with 0. Then C10A G27C A39G, with 0.01; and G1U G17A U20A G21A A24C, with 0.49; and C8G G19C G27C G35U G40A, with 0.01. Regarding A6G C10G G22A, the self-cleavage worked out at 0.05.

In the case of G5C U9G U20C C46A, the self-cleavage is 0.03.

On to C18G G19A A26U, for which the self-cleavage was determined as 0.11. The same measure for A4U A11C A12C A24G G35A: 0.06; for C15A C23U U38A: 0.53; for C13U G36C C42U C46U: 0.15. Then A4U G17U G22U C37G, with 0.03; and G5C A14C G44U C46G, with 0.02. The same measure for G5U G29U U32G: 0.05. Take C18U G21C G29C C31U: the self-cleavage was 0.48. The same measure for G17A G21C C31A A39C U43A: 0. Then C15A G27A A39C C45U, with 0.04; and C15G G21A C42G, with 0.02; and G2U A4U C10A A25G U38G A41G, with 0.01. Take G7U C10A A12C: the self-cleavage came to 0. The same measure for G5A A6U G7A: 0.09.

As to A11C G30C A41C, the self-cleavage was 0. The same measure for C13U G40U U43A: 0.11. Then C23A U32G U38C C46U, with 0.02. As to U20A A24U A25G U34A G44U, the self-cleavage was 0.03. Then A14U C18A C31U, with 0.

C8A A41C C42A: the self-cleavage came out at 0.15. The same measure for A11C G33C C46A: 0.02. As to A11G C37G G44U, the self-cleavage worked out at 0.01. Then G5A G19A U28C A39U, with 0.02; and C10U G22A G29U G36A C45A, with 0.03. Then A12G A24G G30U A39C C46U, with 0.02; and G5U G17A G35A, with 0.03; and A26G G33C A39C, with 0.09. Take U9A G27U G36U A41G: the self-cleavage worked out at 0.05. The same measure for A6U C15G C45G: 0.03; for G7C G22U A26G C31A: 0.02; for U34C G35U C42U: 0.04. Then C8A A24G C31G, with 0.21; and G5U G33A U34A, with 0.08. Then A14U C31A G33A A41C, with 0.02; and U20G C37U A39U, with 0.03. C10G A14U C15A: the self-cleavage came to 0.01.

As for C13U G27U C45U, the self-cleavage came out at 0.09. The same measure for C10A C18A G22U U28C U32A G36U C45U: 0; for A6C A14G G21U: 0.07; for C13A A26G G36U C42U: 0.01. The same measure for A16C U34G G35C G40A: 0.04; for C3G G5C U34C G44U: 0.01. Then C3U A4C A25U U34A, with 0.12; and G22U C23A G29A, with 0.6; and C10A A11C C23A A24C G33U A39G, with 0.01.

For G21U G27A G44U, the self-cleavage is 0.19. Consider G1U C3G A4G, for which the self-cleavage amounted to 0.05.

As for G7U A12C U34G, the self-cleavage is 0.07. As for A12U C18A G33A, the self-cleavage stood at 0.01. Regarding G5U A14G G29U, the self-cleavage is 0.01. The same measure for G1U G7C C13A C37U: 0.07; for G5A C8G A11U A24C: 0.01; for C8U C15U G27U: 0.11.

As for A11G C15U C42G C46A, the self-cleavage came out at 0.

Turning to C3A C37G G44A C46A, the self-cleavage was found to be 0.06. Then G5U G21C A41G C46A, with 0.15; and G1U C10G G22A A39C, with 0.01. As for C15G G30A C31G G40U, the self-cleavage turned out to be 0.02.

In the case of A26U U38C G40U, the self-cleavage turned out to be 0.02. For G5A G36C C46A, the self-cleavage was 0.14. The same measure for C8A C10G G27C C31A: 0.03; for C13A G27A U43C C45A: 0.02. The same measure for A11C G30U A39C: 0.02; for A6C U9C G21C G30U: 0. The same measure for C8G C18A G40A C42G U43C: 0.14; for C8A A16U C37U: 0.12; for A14G C15A G19U C23A U32G: 0.01. For C3U A4C C23A C31A G33C G40A, the self-cleavage was found to be 0.25. As to C3U A6G G22U G27A U38C G40U C42A, the self-cleavage stood at 0.08. The same measure for A25U C31A A41C: 0.05; for G5A C13U G19A: 0.19. Then A4C G5U G7U C23A U28C C37G, with 0.02. Then C13U C15G G30A C31U C42U, with 0. Regarding A14C G21A U28G U43A, the self-cleavage was 0.06. The same measure for U9G G22A G36A: 0.21; for G5A G22C A24U A39C G40A: 0.02; for A4U A16U G33U: 0.05.

As for C10G G21U G27A G29A G30U, the self-cleavage came out at 0.24. With G5U A25U C37U, the self-cleavage came out at 0.07. Take A11C U32A C46G: the self-cleavage came out at 0.01. The same measure for G5C C8G G30U G35U G44C: 0.13.

With A6G A14G A24U G27C, the self-cleavage was 0.12.

For U9A A26G C46A, the self-cleavage came to 0.18. The same measure for G5A U34G U38G: 0.04. For A24C C45G C46U, the self-cleavage came out at 0.03. Then G5U C23A A41G, with 0.35; and G1U A24U C42U, with 0; and C15A A24C A39U, with 0.02. The same measure for U9G U32G G40C C42A: 0.01; for A26U G30A A41G: 0.32; for G27U G29A G33C G36U: 0.07.

With G7C C10A G36U U43C, the self-cleavage turned out to be 0. The same measure for G5A C8A A12G G17C: 0.41; for G17U A24C G29U C37A: 0.03. Then G7A U9G C13G C18G A25G C31U, with 0.05; and C13A G19C C31A G36U G40C, with 0.01; and G5C A6U U20C C37A U38A U43C, with 0.02.
